Test results as given in US20230109218A1 (BIOATLA, published 2023).
Values belong to the binder of their own block, whether it stands above or below them.

Columns and labels:
huCD3-His [1] = biological target: T1, huCD3-His (human); experiment: SPR, huCD3-His immobilised, bispecific as analyte, 1:1 model, pH 6.0
T1 chain: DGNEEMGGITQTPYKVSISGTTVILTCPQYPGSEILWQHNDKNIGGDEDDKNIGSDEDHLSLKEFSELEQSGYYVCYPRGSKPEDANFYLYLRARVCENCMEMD

huCD3-His [2] = biological target: T1, huCD3-His; experiment: SPR, huCD3-His immobilised, bispecific as analyte, 1:1 model, pH 6.5
huCD3-His [3] = biological target: T1, huCD3-His; experiment: SPR, huCD3-His immobilised, bispecific as analyte, 1:1 model, pH 7.4
[4] = biological target: recombinant human CD3 (ELISA capture) (human); experiment: pH sandwich ELISA, human CD3 coated, detection with cyno HER2-mouse Fc, pH 6.0
[5] = biological target: recombinant human CD3 (ELISA capture) (human); experiment: pH sandwich ELISA, human CD3 coated, detection with cyno HER2-mouse Fc, pH 7.4
huCD3-His [6] = biological target: T1, huCD3-His; experiment: SPR, huCD3-His immobilised, bispecific as analyte 0.625-25 nM, pH 6.0, 1:1 fit
huCD3-His [7] = biological target: T1, huCD3-His; experiment: SPR, huCD3-His immobilised, bispecific as analyte 0.625-25 nM, pH 6.5, 1:1 fit
huCD3-His [8] = biological target: T1, huCD3-His; experiment: SPR, huCD3-His immobilised, bispecific as analyte 0.625-25 nM, pH 7.4, 1:1 fit
[9] = biological target: recombinant human CD3 (ELISA capture) (human); experiment: pH sandwich ELISA, human CD3 coated, detection with human HER2-mouse Fc and anti-mouse HRP, pH 6.0
[10] = biological target: recombinant human CD3 (ELISA capture) (human); experiment: pH sandwich ELISA, human CD3 coated, detection with human HER2-mouse Fc and anti-mouse HRP, pH 7.4
[11] = biological target: recombinant human CD3 (ELISA capture) (human); experiment: pH sandwich ELISA, human CD3 coated, detection with cyno HER2-mouse Fc; ratio of EC50 at pH 7.4 to pH 6.0
[12] = biological target: recombinant human CD3 (ELISA capture) (human); experiment: pH sandwich ELISA, human CD3 coated, detection with human HER2-mouse Fc; ratio of EC50 at pH 7.4 to pH 6.0
huCD3-His [13] = biological target: T1, huCD3-His; experiment: SPR, huCD3-His immobilised, bispecific as analyte 0.625-25 nM, pH 6.0, 1:1 fit
huCD3-His [14] = biological target: T1, huCD3-His; experiment: SPR, huCD3-His immobilised, bispecific as analyte 0.625-25 nM, pH 6.5, 1:1 fit
huCD3-His [15] = biological target: T1, huCD3-His; experiment: SPR, huCD3-His immobilised, bispecific as analyte 0.625-25 nM, pH 7.4, 1:1 fit
[16] = biological target: recombinant human CD3 (ELISA capture) (human); experiment: pH sandwich ELISA, human CD3 coated, detection with cyno HER2-mouse Fc, pH 7.4; saturation not reached, value estimated
[17] = biological target: recombinant human CD3 (ELISA capture) (human); experiment: pH sandwich ELISA, human CD3 coated, detection with human HER2-mouse Fc and anti-mouse HRP, pH 7.4; saturation not reached, value estimated
huHER2-His [18] = biological target: T2, huHER2-His (human); experiment: SPR, huHER2-His immobilised, bispecific as analyte, 1:1 model, pH 6.0
T2 construct: also called Human HER2-His; humHer2

huHER2-His [19] = biological target: T2, huHER2-His; experiment: SPR, huHER2-His immobilised, bispecific as analyte, 1:1 model, pH 6.5
huHER2-His [20] = biological target: T2, huHER2-His; experiment: SPR, huHER2-His immobilised, bispecific as analyte, 1:1 model, pH 7.4
cynoHER2-His [21] = biological target: cynoHER2-His (cyno); experiment: SPR, cynoHER2-His immobilised, bispecific as analyte, 1:1 model, pH 6.5
huCD3-His [22] = biological target: T1, huCD3-His; experiment: SPR, huCD3-His immobilised, bispecific as analyte 0.625-25 nM, pH 6.0, 1:1 fit
huCD3-His [23] = biological target: T1, huCD3-His; experiment: SPR, huCD3-His immobilised, bispecific as analyte 0.625-25 nM, pH 6.5, 1:1 fit
huCD3-His [24] = biological target: T1, huCD3-His; experiment: SPR, huCD3-His immobilised, bispecific as analyte 0.625-25 nM, pH 7.4, 1:1 fit
huHER2-His [25] = biological target: T2, huHER2-His; experiment: SPR, huHer2-His immobilised, bispecific as analyte 0.625-25 nM, pH 6.0, 1:1 fit
[26] = biological target: recombinant human CD3 (ELISA capture) (human); experiment: pH sandwich ELISA, human CD3 coated, detection with cyno HER2-mouse Fc, pH 6.0; saturation not reached, value estimated
huHER2-His [27] = biological target: T2, huHER2-His; experiment: SPR, huHer2-His immobilised, bispecific as analyte 0.625-25 nM, pH 7.4, 1:1 fit; low response, about 17 RU at 25 nM
cynoHER2-His [28] = biological target: cynoHER2-His (cyno); experiment: SPR, cynoHer2-His immobilised, bispecific as analyte 0.625-25 nM, pH 6.5, 1:1 fit; low response, about 12 RU at 25 nM

Kd (huCD3-His [1]): 1.23 nM
koff (huCD3-His [1]): 0.000129 s⁻¹
kon (huCD3-His [1]): 105000 M⁻¹ s⁻¹
Kd (huCD3-His [2]): 3.71 nM
koff (huCD3-His [2]): 0.000296 s⁻¹
kon (huCD3-His [2]): 79900 M⁻¹ s⁻¹
koff (huCD3-His [3]): 0.000321 s⁻¹
kon (huCD3-His [3]): 5250 M⁻¹ s⁻¹
EC50 [4]: 0.083 µg/mL
EC50 [5]: 0.0812 µg/mL
Kd (huCD3-His [6]): 1.23 nM
koff (huCD3-His [6]): 0.000129 s⁻¹
kon (huCD3-His [6]): 105000 M⁻¹ s⁻¹
Kd (huCD3-His [7]): 3.71 nM
koff (huCD3-His [7]): 0.000296 s⁻¹
kon (huCD3-His [7]): 79900 M⁻¹ s⁻¹
Kd (huCD3-His [8]): 61.1 nM
koff (huCD3-His [8]): 0.000321 s⁻¹
kon (huCD3-His [8]): 5250 M⁻¹ s⁻¹
EC50 [9]: 0.0777 µg/mL
EC50 [10]: 0.0621 µg/mL
EC50 ratio pH 7.4/6.0 [11]: 0.98
EC50 ratio pH 7.4/6.0 [12]: 0.8
B1: WT HER2 × WT CD3 butterfly bispecific antibody (bispecific antibody, human IgG1, kappa)
heavy: [about 450 residues with a human IgG1 Fc not printed]
light: [about 200 residues not printed]SRSGGGGEVQLVESGGGLVQPGGSLRLSCAASGFTFNTYAMNWVRQAPGKGLEWVARIRSKYNNYATYYADSVKDRFTISRDDSKNSLYLQMNSLKTEDTAVYYCVRHGNFGNSYVSWFAYWGQGTLVTVSSGGSGGSGGSGGSGGQAVVTQEPSLTVSPGGTVTLTCRSSTGAVTTSNYANWVQQKPGQAPRGLIGGTNKRAPWTPARFSGSLLGGKAALTITGAQAEDEADYYCALWYSNLWVFGGGTKLTVLSR
notes: also called WT Her × WT CD3

Kd (huCD3-His [1]): 1.79 nM
koff (huCD3-His [1]): 0.000679 s⁻¹
kon (huCD3-His [1]): 380000 M⁻¹ s⁻¹
Kd (huCD3-His [2]): 5.71 nM
koff (huCD3-His [2]): 0.000989 s⁻¹
kon (huCD3-His [2]): 173000 M⁻¹ s⁻¹
Kd (huCD3-His [3]): 17.1 nM
koff (huCD3-His [3]): 0.00112 s⁻¹
kon (huCD3-His [3]): 65600 M⁻¹ s⁻¹
EC50 [4]: 0.107 µg/mL
Kd (huCD3-His [13]): 1.79 nM
koff (huCD3-His [13]): 0.000679 s⁻¹
kon (huCD3-His [13]): 380000 M⁻¹ s⁻¹
Kd (huCD3-His [14]): 5.71 nM
koff (huCD3-His [14]): 0.000989 s⁻¹
kon (huCD3-His [14]): 173000 M⁻¹ s⁻¹
Kd (huCD3-His [15]): 28.8 nM
koff (huCD3-His [15]): 0.00113 s⁻¹
kon (huCD3-His [15]): 39200 M⁻¹ s⁻¹
EC50 [9]: 0.11 µg/mL
EC50 ratio pH 7.4/6.0 [11]: 7.55
EC50 ratio pH 7.4/6.0 [12]: 14.8
EC50 [16]: ~0.807 µg/mL
EC50 [17]: ~1.62 µg/mL
B2: WT HER2 × CAB CD3-BF45 butterfly bispecific antibody (bispecific antibody, human IgG1, kappa)
heavy: [about 450 residues with a human IgG1 Fc not printed]
light: [about 200 residues not printed]SRSGGGGEVQLVESGGGLVQPGGSLRLSCAASGFTFNTYAMNWVRQAPGKGLEWVARIRSKYNNYATYYADSVKDRFTISRDDSKNSLYLQMNSLKTEDTAVYYCVRHSNFGNSKVSWFAYWGQGTLVTVSSGGSGGSGGSGGSGGQAVVTQEPSLTVSPGGTVTLTCRSSAGAVTTSNYDNWVQQKPGQAPRGLIGGTNKRAPWTPARFSGSLLGGKAALTITGAQAEDEADYYCALWYSNLWVFGGGTKLTVLSR

Kd (huCD3-His [1]): 1.88 nM
koff (huCD3-His [1]): 0.00095 s⁻¹
kon (huCD3-His [1]): 506000 M⁻¹ s⁻¹
Kd (huCD3-His [2]): 1.96 nM
koff (huCD3-His [2]): 0.000541 s⁻¹
kon (huCD3-His [2]): 276000 M⁻¹ s⁻¹
Kd (huCD3-His [3]): 5.57 nM
koff (huCD3-His [3]): 0.00108 s⁻¹
kon (huCD3-His [3]): 193000 M⁻¹ s⁻¹
Kd (huHER2-His [18]): 4.8 nM
koff (huHER2-His [18]): 0.0016 s⁻¹
kon (huHER2-His [18]): 333000 M⁻¹ s⁻¹
Kd (huHER2-His [19]): 4.12 nM
koff (huHER2-His [19]): 0.00115 s⁻¹
kon (huHER2-His [19]): 279000 M⁻¹ s⁻¹
Kd (huHER2-His [20]): 18.2 nM
koff (huHER2-His [20]): 0.00118 s⁻¹
kon (huHER2-His [20]): 65000 M⁻¹ s⁻¹
kon (cynoHER2-His [21]): 167000 M⁻¹ s⁻¹
Kd (huCD3-His [22]): 1.88 nM
koff (huCD3-His [22]): 0.00095 s⁻¹
kon (huCD3-His [22]): 506000 M⁻¹ s⁻¹
Kd (huCD3-His [23]): 1.96 nM
koff (huCD3-His [23]): 0.00054 s⁻¹
kon (huCD3-His [23]): 276000 M⁻¹ s⁻¹
Kd (huCD3-His [24]): 5.57 nM
koff (huCD3-His [24]): 0.00108 s⁻¹
kon (huCD3-His [24]): 193000 M⁻¹ s⁻¹
Kd (huHER2-His [25]): 4.8 nM
koff (huHER2-His [25]): 0.0016 s⁻¹
kon (huHER2-His [25]): 333000 M⁻¹ s⁻¹
EC50 [9]: 0.112 µg/mL
EC50 ratio pH 7.4/6.0 [11]: 1.23
EC50 ratio pH 7.4/6.0 [12]: 17.1
EC50 [26]: ~0.654 µg/mL
EC50 [16]: ~0.802 µg/mL
Kd (huHER2-His [27]): 18.1 nM
koff (huHER2-His [27]): 0.00118 s⁻¹
kon (huHER2-His [27]): 65000 M⁻¹ s⁻¹
Kd (cynoHER2-His [28]): 18.7 nM
koff (cynoHER2-His [28]): 0.00312 s⁻¹
kon (cynoHER2-His [28]): 166000 M⁻¹ s⁻¹
EC50 [17]: ~1.93 µg/mL
B3: CAB HER2-24-06 × CAB CD3-BF19 butterfly bispecific antibody (bispecific antibody, human IgG1, kappa)
heavy: [about 450 residues with a human IgG1 Fc not printed]
light: [about 200 residues not printed]SRSGGGGEVQLVESGGGLVQPGGSLRLSCAASGFTFNTYAMNWVRQAPGKGLEWVARIRSKYNNYATYYADSVKDRFTISRDDSKNSLYLQMNSLKTEDTAVYYCVRHGNFPNSKVSWFQYWGQGTLVTVSSGGSGGSGGSGGSGGQAVVTQEPSLTVSPGGTVTLTCRSSTGAVTTSNYDNWVQQKPGQAPRGLIGGTNKRAPWTPARFSGSLLGGKAALTITGAQAEDEADYYCALWYSNLWVFGGGTKLTVLSR
notes: also called BA-150-24-06-BF19; CAB Her2 × CAB CD3-BF19
